Results on 44 sequences are retold here after the supplement of paper PMC11417369.

This is one part of the list.

The test concerns PfHDP1 homeodomain (GST-tagged). The test is described as follows: gcPBM binding intensity (ln(normalized median fluorescence intensity)); higher = stronger DNA binding. In short, it runs like this: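 Binding intensity is the highest Masliner-normalised natural-log median intensity over replicate spots in either probe orientation. To obtain it, GST-tagged P. falciparum DNA-binding domains made in E. coli were incubated for 1 h on an Agilent 4 × 180k array of primer-extended double-stranded 36-bp intergenic genomic probes plus negative controls. Detection used Alexa488 anti-GST antibody with scanning at 488 nm.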
For the sequence “AAGGAAGATATATACACACATACAAATATATATATA [CACACA_site2181]”, the “gcPBM binding intensity (ln)” value was 8.6.

Take “TGTAATGTTTACAACACACAAATTAGAAATACAAAA [CACACA_site6924]”: the “gcPBM binding intensity (ln)” value is 6.46.

Consider “TTGTGTTTTATTATTTTATTATTACTATTATAATGT [GTGCAC_negctrl_site484]”, for which the “gcPBM binding intensity (ln)” value was 6.77.

Turning to “TAAAAATGGGTATGTACACACTTTATTTTTAATACA [CACACA_site5404]”, the “gcPBM binding intensity (ln)” value worked out at 6.26.

As for “ATAAAACATAAATACATACACACATAATATATATTA [CACACA_site110]”, the “gcPBM binding intensity (ln)” value was 6.63.

With “AAAAAAAAAAAACACACACACAAATACAAATGGTAA [CACACA_site1720]”, the “gcPBM binding intensity (ln)” value stood at 6.64.

For “TTCAATAGGTATAATTGTACTTAATAATATATTGTT [XGTACX_site8363]”, the “gcPBM binding intensity (ln)” value was 6.3.

With “AATACATATCAAAGCTGTACAAAGTAAATTTTACTT [XGTACX_site3525]”, the “gcPBM binding intensity (ln)” value is 6.64.

For the sequence “AAGTTATTGATATATACACACAAATATAAATAATAT [CACACA_site6695]”, the “gcPBM binding intensity (ln)” value is 6.53.

On to “CTTAGGTTAAAAGTGTGTACATAAAAACATATATAA [XGTACX_site2213]”, for which the “gcPBM binding intensity (ln)” value is 6.95.

Regarding TACTATTATAAATATGTGCACTTCAATAATATACTA, the “gcPBM binding intensity (ln)” value was 9.53.

Consider “TAAATAAATTATTTTCGTACTTATTTATTTTAATTA [XGTACX_site283]”, for which the “gcPBM binding intensity (ln)” value worked out at 6.16.

As for “ATAAGAAAAAGACACACACACAAAAAAAAAAAAAAA [CACACA_site2828]”, the “gcPBM binding intensity (ln)” value stood at 6.54.

With “TAAAATATTATTTATTTACACACCAATCTTCTTTTC [CACACA_site9320]”, the “gcPBM binding intensity (ln)” value worked out at 6.24.

For “ATATAATATTTATATGCACACTTTTCTATATATAAG [CACACA_site6100]”, the “gcPBM binding intensity (ln)” value is 8.84.

For the sequence “TCGTATTTAAAATGTAGTACATAATTTGAAAAATAA [XGTACX_site5832]”, the “gcPBM binding intensity (ln)” value is 6.24.

Regarding “TAATGGTTATCACTAACATGCAGTAATATTATATAG [TGCATGCA_site176]”, the “gcPBM binding intensity (ln)” value turned out to be 6.2.

Regarding “ATATATATATGTATATGTACATATATATGGTAACTC [XGTACX_site681]”, the “gcPBM binding intensity (ln)” value was 8.37.

Regarding “AAAAGAAAAAAAAAAAAAAAAAAAATTAAAATATAA [CACACA_negctrl_site17]”, the “gcPBM binding intensity (ln)” value worked out at 5.65.

Consider “TTTTTTCTTTTTTTTTGTACATATAATATTTATGTT [XGTACX_site302]”, for which the “gcPBM binding intensity (ln)” value came out at 6.5.

Take “ATACATTCAATGAAATGTACGTTTATTTACAGAAGA [XGTACX_site2999]”: the “gcPBM binding intensity (ln)” value is 6.28.

For the sequence “TACAGATACAGATACACACACACACCGAAATAAATA [CACACA_site4865]”, the “gcPBM binding intensity (ln)” value is 6.92.

For the sequence “AAAATAAAAAGAAAAAGAAAAAAGGGGGGGTAGGGG [CACACA_negctrl_site1048]”, the “gcPBM binding intensity (ln)” value was 6.78.

Turning to “TAAATTCCTACATACGCATGTACATTAAAATTTTAA [TGCATGCA_site215]”, the “gcPBM binding intensity (ln)” value is 6.68.

Consider “CTTTAAGTTATATGAAGTACAATTTAAAAAAATGAA [XGTACX_site358]”, for which the “gcPBM binding intensity (ln)” value was 6.2.

Consider “TTAAAGTAGAGAAAATGTACATTTTATTAACACAAT [XGTACX_site6369]”, for which the “gcPBM binding intensity (ln)” value was 6.76.

In the case of “AAATAAAAAACAGTGGCACACATTATGTATCCACCT [CACACA_site3756]”, the “gcPBM binding intensity (ln)” value amounted to 6.07.

Turning to “AAAAAAAAAATATACACACACATATAAATATAAATA [CACACA_site7574]”, the “gcPBM binding intensity (ln)” value came to 6.68.

As to “TATATGAAGTACACAATACACACTAATTATATATAA [CACACA_site2608]”, the “gcPBM binding intensity (ln)” value is 6.68.

Consider “AACTATAAAAATTTTACACACTGTTTTTAAATAATG [CACACA_site5928]”, for which the “gcPBM binding intensity (ln)” value turned out to be 6.89.

With “AATTTTTTTTTTAGACGTACAAGAAAAAACAAAAAA [XGTACX_site4990]”, the “gcPBM binding intensity (ln)” value came out at 6.53.

On to “TTATGCCTTTAATATACACACTAATATTTTTTTGGC [CACACA_site5171]”, for which the “gcPBM binding intensity (ln)” value is 6.78.

For “TGTCATATTATAAATTGTACAAATAGTATAATTATT [XGTACX_site581]”, the “gcPBM binding intensity (ln)” value was 6.3.

As to “ATAAAAATATTATAAGCACACATATATATATATATA [CACACA_site8781]”, the “gcPBM binding intensity (ln)” value was found to be 9.54.

Turning to “AGTATACATATATATACACACATATATATATATATA [CACACA_site300]”, the “gcPBM binding intensity (ln)” value was 9.27.

Take “ATTTTATCTTTAAACTGTACGTATTAATATGTAGAA [XGTACX_site3077]”: the “gcPBM binding intensity (ln)” value is 6.27.

On to “GTAAAATGATATAAATGTACATAATATATATATGTC [XGTACX_site4049]”, for which the “gcPBM binding intensity (ln)” value is 6.55.

As to “TGTGTATTTATAAATACACACCAAATGTTAATATAT [CACACA_site6904]”, the “gcPBM binding intensity (ln)” value was determined as 6.9.

Consider “ACAAGGTTTACGGGTAGTACAAATTTTTGAACATCT [XGTACX_site4739]”, for which the “gcPBM binding intensity (ln)” value is 5.96.

On to “TTTTTTTTTTTTTTTTGTACTCATATCTACTATCAT [XGTACX_site274]”, for which the “gcPBM binding intensity (ln)” value is 6.44.

As to “ATATAGATGCATAATACACACATCAGATAATTAACC [CACACA_site6871]”, the “gcPBM binding intensity (ln)” value is 6.96.

Consider “ATAAAAATTGATTATACACACGCGCCCAGACAACAA [CACACA_site5870]”, for which the “gcPBM binding intensity (ln)” value is 6.82.

Take “ATTAAAAGTTTATACAAATAAAAAACAAAACAAAAA [CACACA_negctrl_site1030]”: the “gcPBM binding intensity (ln)” value came to 6.61.

Regarding “AGCCAAACCTTAAATTTAGCAATAAGTTTACAGGTC [CACACA_negctrl_site360]”, the “gcPBM binding intensity (ln)” value was determined as 6.3.
